B1: recombinant human IDH1 R132H mutant with C-terminal His8 tag (enzyme)
chain: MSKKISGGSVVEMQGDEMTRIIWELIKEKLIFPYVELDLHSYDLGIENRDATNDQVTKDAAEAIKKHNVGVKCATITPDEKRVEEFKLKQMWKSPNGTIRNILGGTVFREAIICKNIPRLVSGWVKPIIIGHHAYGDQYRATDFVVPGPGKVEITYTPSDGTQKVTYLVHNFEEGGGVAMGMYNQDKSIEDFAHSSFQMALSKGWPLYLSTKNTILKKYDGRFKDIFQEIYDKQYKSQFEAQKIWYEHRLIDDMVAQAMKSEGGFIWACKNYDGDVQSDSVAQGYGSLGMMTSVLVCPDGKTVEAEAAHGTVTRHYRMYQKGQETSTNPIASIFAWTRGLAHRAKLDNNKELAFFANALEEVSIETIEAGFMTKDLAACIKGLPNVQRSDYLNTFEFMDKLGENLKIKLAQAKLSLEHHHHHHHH
notes: The whole IDH1 coding region in pET41a with C-terminal SLE-His8, expressed in E. coli; Crystallised as a homodimer with aKG, NADPH and Ca2+; also called IDHR132H; ICDH1 R132H
B2: human cytosolic isocitrate dehydrogenase (HcIDH) engineered mutant form R132S with an 11-residue C-terminal affinity-purification tag (enzyme)
chain: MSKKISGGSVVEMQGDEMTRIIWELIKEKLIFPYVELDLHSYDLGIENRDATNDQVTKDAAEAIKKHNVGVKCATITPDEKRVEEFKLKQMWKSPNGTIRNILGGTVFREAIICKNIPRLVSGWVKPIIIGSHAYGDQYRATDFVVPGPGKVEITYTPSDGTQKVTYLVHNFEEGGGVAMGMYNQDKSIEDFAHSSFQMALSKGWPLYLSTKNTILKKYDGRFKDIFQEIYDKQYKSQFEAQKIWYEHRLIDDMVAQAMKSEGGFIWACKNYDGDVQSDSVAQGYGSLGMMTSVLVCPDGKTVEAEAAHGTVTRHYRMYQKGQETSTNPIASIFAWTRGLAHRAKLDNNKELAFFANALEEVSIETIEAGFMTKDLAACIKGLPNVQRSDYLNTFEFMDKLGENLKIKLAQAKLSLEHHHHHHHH
notes: The whole IDH1 coding region was cloned into pET41a; The stop codon was changed to Ser, which gives the C-terminal SLE-His8; Expressed in E. coli; also called IDH1 R132S; IDHR132S
B3: recombinant human wild type IDH1 with C-terminal His8 tag (enzyme)
chain: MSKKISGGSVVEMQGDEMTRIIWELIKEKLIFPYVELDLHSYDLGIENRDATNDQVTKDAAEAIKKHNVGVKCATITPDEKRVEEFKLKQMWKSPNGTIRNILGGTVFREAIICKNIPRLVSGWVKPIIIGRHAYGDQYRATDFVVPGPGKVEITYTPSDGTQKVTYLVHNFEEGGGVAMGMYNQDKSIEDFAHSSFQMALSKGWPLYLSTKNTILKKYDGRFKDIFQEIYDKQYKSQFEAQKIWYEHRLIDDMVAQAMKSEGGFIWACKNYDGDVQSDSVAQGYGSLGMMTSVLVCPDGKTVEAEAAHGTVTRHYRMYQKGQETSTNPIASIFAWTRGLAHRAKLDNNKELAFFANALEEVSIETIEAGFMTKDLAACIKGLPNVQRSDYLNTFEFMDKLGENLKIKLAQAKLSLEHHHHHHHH
notes: The whole IDH1 coding region in pET41a with C-terminal SLE-His8, expressed in E. coli; also called IDHwt; IDH1 wt

Molecular target: the molecule itself
Experiment: size-exclusion chromatography (S-200), self-association into a homodimer

Binding result, binds:
B1
B2
B3

Reference: patent publication US20130288284A1 (AGIOS PHARMACEUTICALS, published 2013)
